# The whole screen tested about 370,000 compounds, of which about 150 (0.041%) were called active. This list was built around the results that the source calls inconclusive (neither active nor inactive); the mix of calls is not that of the screen. The call rests on the fitted dose curve; in most records, active means well fitted inhibition curve with a large enough effect; inconclusive means small, poorly fitted or top-dose-only effect; inactive means flat fitted curve, though single readings scatter. Potencies of inconclusive entries are left out as doubtful fits.
# Molecular target: Beta-lactamase (Escherichia coli (strain K12)) (UniProt P00811)
# Assay: qHTS Inhibitors of AmpC Beta-Lactamase (assay with detergent); further: nearly all actives have a fitted effect of over 25% in size
# Details: AmpC hydrolysis of nitrocefin, absorbance 480 nm, 0.01% Triton; series mostly up to 114 µM
# Procedure, shortened: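 20 mM phosphate pH 7.0 + 0.01% (detergent screen) or 0.0001% Triton X-100; 5.3 nM AmpC reagent; cpd preinc 15 min RT; nitrocefin (800 uM stock) to start; A480 q20 s × 4 min; Activity was normalised to no-enzyme and no-compound control wells.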
# Potency means the concentration at half of the fitted maximal effect; tags describe the fitted curve by direction and shape.
# Sequence of UniProt P00811 (P00811 whole entry, looked up): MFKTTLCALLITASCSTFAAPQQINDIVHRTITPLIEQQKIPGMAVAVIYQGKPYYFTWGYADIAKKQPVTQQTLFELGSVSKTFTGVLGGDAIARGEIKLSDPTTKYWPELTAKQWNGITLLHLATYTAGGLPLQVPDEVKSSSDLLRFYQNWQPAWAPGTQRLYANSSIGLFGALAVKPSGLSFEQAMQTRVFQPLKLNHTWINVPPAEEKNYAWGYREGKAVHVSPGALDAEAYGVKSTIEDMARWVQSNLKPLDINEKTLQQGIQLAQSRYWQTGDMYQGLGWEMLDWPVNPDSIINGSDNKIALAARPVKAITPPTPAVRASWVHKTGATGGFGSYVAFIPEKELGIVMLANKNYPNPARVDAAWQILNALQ
row,Compound,Potency
1,COc1ccccc1-n1c(SCC(=O)Nc2ccc(F)cc2)nc2c(c1=O)SCC2,"inconclusive [inhibitor, full curve, poor fit]"
2,O=S(=O)(c1ccc(-n2cnnn2)cc1)N(C1CCCCC1)C1CCCCC1,"inconclusive [inhibitor, full curve, poor fit]"
3,Cc1ccc(OCCCn2c(CO)nc3ccccc32)cc1,"inconclusive [inhibitor, full curve, poor fit]"
4,COc1ccc(Br)cc1/C=N/NC(=O)c1nc(-c2ccccc2)n2c1CCCCC2,"inconclusive [inhibitor, single point]"
5,CCOc1ccc(-c2nnc(SCC(=O)NC(C)(C)C)nc2-c2ccc(OCC)c(OC)c2)cc1OC,"inconclusive [inhibitor, partial curve]"
6,O=C(C1CCN(S(=O)(=O)c2ccc(Br)s2)CC1)N1CCc2ccccc21,"inconclusive [inhibitor, full curve, poor fit]"
7,CCC(C)N(CCNC(=O)c1ccc2c(c1)NC(=O)c1ccccc1S2)C1CCCCC1 (stereo not drawn),inactive
8,O=C(Nc1cccc2cccnc12)c1cccc(N2C(=O)CCC2=O)c1,"inconclusive [inhibitor, partial curve, poor fit]"
9,COc1ccc(/C=N/Nc2cc(C)nc(N)n2)cc1,inactive
10,Cc1noc(C)c1CSCC(=O)NC1=NCCS1,"inconclusive [inhibitor, full curve, poor fit]"
11,COc1cc(/C=C/C(=O)Nc2cc(C(F)(F)F)ccc2Cl)cc(OC)c1OC,inactive
12,CCn1cc(C(=O)NC2CC3CCC2C3)c(=O)c2ccc(C)nc21 (stereo not drawn),inactive
13,Cc1ccc(Cn2cc(/C=N/Nc3ccc([N+](=O)[O-])cn3)c3ccccc32)cc1,inactive
14,CCOC(=O)c1cnn(-c2ccc([N+](=O)[O-])cc2)c1N,inactive
15,CCOC(=O)CSc1nc2sc3c(c2c(=O)[nH]1)CC(C)(CC)OC3 (stereo not drawn),"inconclusive [inhibitor, partial curve, poor fit]"
16,COc1ccc(C(=O)Nc2nc3ccccc3s2)cc1,"inconclusive [inhibitor, full curve]"
17,Cc1nn(C)c(N)c1C(O)(c1nccn1C)C(F)(F)F (stereo not drawn),"inconclusive [inhibitor, full curve]"
18,c1cncc(CNC2=NCCCCC2)c1,"inconclusive [inhibitor, full curve, poor fit]"
19,NS(=O)(=O)c1ccc(NC(=O)C2COc3ccccc3O2)cc1 (stereo not drawn),"inconclusive [inhibitor, full curve]"
20,CC(C)CCNC(=O)c1ccc2c(c1)NC(=O)C(CS(=O)(=O)Cc1cccc(Br)c1)N2 (stereo not drawn),inactive
21,COCCNC(=O)C(=O)Nc1cccc(Br)c1,"inconclusive [inhibitor, full curve, poor fit]"
22,COc1ccccc1N1CCN(C(=O)c2cn(-c3ccccc3)nc2-c2cccnc2)CC1,"inconclusive [inhibitor, full curve, poor fit]"
23,O=C(Cc1cccs1)N/N=C/C=C/c1ccco1,"inconclusive [inhibitor, single point]"

row,Compound,Potency
1,COCCN1Cc2c(sc(C)c2C)N(C(=O)c2ccccc2)C1,"inconclusive [inhibitor, full curve]"
2,CCNc1nc(NC(C)C)nc(N2CC(=O)N(CC(=O)OCC)C2=N)n1,"inconclusive [inhibitor, full curve, poor fit]"
3,CCn1c(=N)c(S(=O)(=O)c2ccc(C)cc2)cc2c(=O)n3ccccc3nc21,"inconclusive [inhibitor, single point]"
4,COc1ccc(NC(=O)Cn2nc(-c3ccncc3)ccc2=O)cc1Cl,inactive
5,O=C(COc1ccc(F)cc1Cl)Nc1ccc(S(=O)(=O)Nc2nccs2)cc1,"inconclusive [inhibitor, full curve]"
6,CCOC(=O)c1c[nH]c2nc(C)ccc2c1=O,inactive
7,Cc1cccc2sc(NC(=O)Cn3c(C)csc3=O)nc12,inactive
8,CC1(C)CC(=O)c2cc(-c3nc(-c4ccc(Cl)cc4)cs3)c(=O)n(-c3ccc(Cl)cc3)c2C1,inactive
9,COc1ccc(C(c2sc3nc(C)nn3c2O)N2CC(C)OC(C)C2)cc1OC (stereo not drawn),"inconclusive [inhibitor, full curve]"
10,COc1ccccc1N1CCN(C(=O)c2cccc(S(=O)(=O)NCc3cccnc3)c2)CC1,"inconclusive [inhibitor, single point]"
11,Cc1ccc[n+](C(C)C(=O)Nc2ccc(C)c([N+](=O)[O-])c2)c1 (stereo not drawn),"inconclusive [inhibitor, partial curve]"
12,COc1cccc(/C=N/NC(=O)NC2CCCCC2)c1O,inactive
13,CCOC(=O)c1cc(-c2ccc3c(c2)OCO3)nc2onc(C)c12,"inconclusive [inhibitor, full curve, poor fit]"
14,O=C(NC(=S)N1CCN(Cc2ccccc2)CC1)c1cccnc1,inactive
15,COc1cc(C(=O)NC(C)c2ccc3ccccc3c2)cc(Cl)c1O (stereo not drawn),"inconclusive [inhibitor, full curve, poor fit]"
16,COc1ccccc1/C=N/NC(=O)c1csc(C)c1C,"inconclusive [inhibitor, full curve, poor fit]"
17,Cc1ccc(/C([O-])=C(/C(=S)NCc2ccco2)[n+]2ccccc2)cc1,"inconclusive [inhibitor, single point]"
18,CCCOC(=O)CCCCC1SCC(NC(=O)OC)C1NC(=O)OC (stereo not drawn),"inconclusive [inhibitor, full curve, poor fit]"
19,CCOc1c(Cl)cc(/C=C/C(=O)N(CC)CC(=O)NCc2cccs2)cc1OC,"inconclusive [inhibitor, partial curve, poor fit]"
20,COCCCn1c(=N)c(C(=O)NCc2ccc3c(c2)OCO3)cc2c(=O)n3ccccc3nc21,"inconclusive [inhibitor, single point]"
21,O=C1CCNCCN1[C@H](CO)c1ccccc1,"inconclusive [inhibitor, full curve, poor fit]"
22,COc1cccc(NC(=O)CN(C)C(=O)c2cc(-c3ccccc3)nc3ccccc23)c1,inactive
23,Cc1cc(C(=O)OCC(=O)N2CCc3ccccc32)ccc1[N+](=O)[O-],inactive

row,Compound,Potency
1,O=C(CSc1nnc2c3ccccc3c3ccccc3c2n1)Nc1ccccc1F,"inconclusive [inhibitor, full curve]"
2,Cc1ccc(OCCn2cc(/C=C(\C#N)C(=O)NCC3CCCO3)c3ccccc32)cc1 (stereo not drawn),"inconclusive [inhibitor, full curve, poor fit]"
3,Cn1c(=O)oc2cc(S(=O)(=O)NCCN3CCN(c4ccccc4F)CC3)ccc21,"inconclusive [inhibitor, full curve, poor fit]"
4,COc1ccc(CNC(=O)c2ccc3c(c2)N(C)C(=O)CS3=O)cc1 (stereo not drawn),"inconclusive [inhibitor, full curve, poor fit]"
5,N#C/C(=C\c1cc([N+](=O)[O-])c(N2CCCCC2)cc1N1CCCCC1)c1nn(-c2ccccc2)c(N)c1C#N,inactive
6,CCCCn1c(NCc2ccccc2O)nc2ccccc21,"inconclusive [inhibitor, partial curve, poor fit]"
7,CNC(=O)c1nnsc1S(=O)c1ccc(Cl)cc1 (stereo not drawn),"inconclusive [inhibitor, partial curve]"
8,CC(=O)c1ccc(NC(=S)Nc2ccc(Br)c(Cl)c2)cc1,inactive
9,CCN1CCN(c2ncnc3c2cnn3-c2ccccc2)CC1,"inconclusive [inhibitor, full curve, poor fit]"
10,COCCCNC(=O)CSc1c2c(nc3ccc(Cl)cc13)CCCC2,inactive
11,CC(=O)C1=C(C)NC(SCC(=O)c2cc(Cl)ccc2Cl)=C(C#N)C1c1ccco1 (stereo not drawn),"inconclusive [inhibitor, full curve, poor fit]"
12,COc1ccc(NC(=O)C2CC(=O)N(C(C)C)C2)cc1 (stereo not drawn),"inconclusive [inhibitor, full curve, poor fit]"
13,O=C(O)CCC(=O)Nc1sc2c(c1C(=O)Nc1cccc3ccccc13)CCCCC2,"inconclusive [inhibitor, full curve]"
14,Cc1nc(N2CCCC2)c2c(C(=O)N3CCN(c4cccc(Cl)c4)CC3)c(C)oc2n1,inactive
15,COc1ccc(N2CCN(C(=O)c3ccc(CS(=O)(=O)c4ccc(Br)cc4)o3)CC2)cc1,"inconclusive [inhibitor, single point]"
16,C=Cc1ccc(CSc2nc(-c3ccccc3Cl)nc3c2Cc2c(CO)cnc(C)c2O3)cc1,inactive
17,C/C(=N\Nc1ccc(F)cc1F)c1ccc(N2CCOCC2)cc1,"inconclusive [inhibitor, single point]"
18,Cc1cccc(N2C(=O)CSC23C(=O)N(Cc2cccc(C(F)(F)F)c2)c2ccccc23)c1 (stereo not drawn),inactive
19,COc1ccc(C(C)=O)cc1COC(=O)c1cc(=O)c2ccccc2o1,inactive
20,CCC(=O)N1CCN(c2ccc(Cl)cc2NC(=O)Cc2ccccc2)CC1,"inconclusive [inhibitor, full curve, poor fit]"
21,Cc1ccc(SCC(=O)OCn2nnc3ccccc3c2=O)cc1C,"inconclusive [inhibitor, single point]"
22,Cc1cccc(NC(=S)N=Nc2c(O)[nH]c3ccccc23)c1,"inconclusive [inhibitor, full curve]"
